From PMC4336329 (PLoS ONE, 2015) come the findings set out here.

Each structure is given as a SMILES string. About 14,000 (4.5%) of roughly 310,000 compounds showed an effect of 50% or more. Effects have a minus sign here. The list shows a part of the results.
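Also: peak tail current of the secondary pulse compared with the same well before compound.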

Sequence of human ether-à-go-go-related gene (hERG) potassium channel (Q12809 whole entry, looked up): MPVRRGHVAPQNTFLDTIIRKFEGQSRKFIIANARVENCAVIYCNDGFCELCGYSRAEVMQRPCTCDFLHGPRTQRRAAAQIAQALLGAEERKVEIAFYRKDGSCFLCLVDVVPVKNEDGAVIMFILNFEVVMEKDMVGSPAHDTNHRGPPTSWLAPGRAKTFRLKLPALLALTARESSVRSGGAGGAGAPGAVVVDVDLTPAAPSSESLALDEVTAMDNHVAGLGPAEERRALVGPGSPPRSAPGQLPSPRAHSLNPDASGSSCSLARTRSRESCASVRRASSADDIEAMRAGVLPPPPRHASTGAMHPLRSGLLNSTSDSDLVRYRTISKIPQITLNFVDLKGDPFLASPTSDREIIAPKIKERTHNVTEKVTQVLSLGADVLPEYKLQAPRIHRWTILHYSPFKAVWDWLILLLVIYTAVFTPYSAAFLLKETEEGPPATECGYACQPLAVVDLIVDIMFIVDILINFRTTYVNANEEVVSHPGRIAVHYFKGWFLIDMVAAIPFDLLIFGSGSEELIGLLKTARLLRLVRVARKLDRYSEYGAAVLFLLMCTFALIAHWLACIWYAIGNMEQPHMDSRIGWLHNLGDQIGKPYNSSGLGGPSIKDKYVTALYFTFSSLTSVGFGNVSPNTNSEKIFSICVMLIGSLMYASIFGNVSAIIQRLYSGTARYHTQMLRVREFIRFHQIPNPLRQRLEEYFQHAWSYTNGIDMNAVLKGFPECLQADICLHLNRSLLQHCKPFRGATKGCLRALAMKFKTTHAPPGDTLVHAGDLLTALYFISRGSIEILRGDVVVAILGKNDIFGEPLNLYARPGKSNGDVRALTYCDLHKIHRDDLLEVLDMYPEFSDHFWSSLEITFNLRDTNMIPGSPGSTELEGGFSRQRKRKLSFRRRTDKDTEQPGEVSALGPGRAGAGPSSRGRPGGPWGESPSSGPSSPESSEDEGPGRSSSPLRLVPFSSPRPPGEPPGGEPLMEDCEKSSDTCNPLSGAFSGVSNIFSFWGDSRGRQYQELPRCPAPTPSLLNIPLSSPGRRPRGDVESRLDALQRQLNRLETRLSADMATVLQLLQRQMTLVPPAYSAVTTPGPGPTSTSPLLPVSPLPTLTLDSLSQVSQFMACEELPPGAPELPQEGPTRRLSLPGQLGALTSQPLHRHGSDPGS

This experiment has as its target human ether-à-go-go-related gene (hERG) potassium channel (human, UniProt Q12809). Kind of experiment: primary screen, population patch clamp on CHO cells stably expressing hERG.
Turning to `O=C(Nc1ccc(C(=O)N2CCCCC2)cc1)C1CCCCC1`, the “hERG current change (%, negative = inhibition) at 10uM” value was -0.679%.
In the case of `O=S(=O)(NCCCCCNS(=O)(=O)c1ccccc1)c1ccccc1` it was -2.98%; in that of `Nc1ccn(-c2ccc(Cl)cc2)c(=O)c1`, 12.8%; in that of `CCOC(=O)c1c(-c2cccc([N+](=O)[O-])c2)csc1NC(=O)CCCOc1ccccc1`, 13.1%.
In the case of `CCOc1ccc(NC(=O)CN(C)C(=O)c2cc(-c3ccncc3)nc3ccccc23)cc1OCC` it was -58.6%; in that of `Cc1ccc(NCc2nnc(SCC(=O)O)n2Cc2ccccc2)cc1Cl`, 11.4%.
Turning to `O=C(Nc1nc(=O)n(C(=O)C2CC2)s1)c1ccccc1`, the “hERG current change (%, negative = inhibition) at 10uM” value is given as -0.47%.
In the case of `CC(C(=O)c1ccc(-c2ccccc2)cc1)[n+]1ccccc1.[Br-]` (centres unmarked) it was 2.72%; in that of `O=c1oc2ccccc2c(Nc2ccccc2)c1CN1CCCCC1`, -57.1%; in that of `Cc1cc(Cl)ccc1OCC(=O)NC1CCCC1`, -22.2%.
Take `CCCCCCN=C(C)C1=C(O)C(C(=O)OC)C(C)(C)CC1=O` (centres unmarked): the “hERG current change (%, negative = inhibition) at 10uM” value is recorded as -3.25%.
In the case of `O=C1CC(c2ccco2)CC(O)=C1C=NCC1NCCc2ccccc21` (centres unmarked) it was -25%; in that of `O=C1CC(Nc2ccc(N3CCOCC3)cc2)C(=O)N1c1ccccc1` (centres unmarked), 14.9%.
For the compound `CCN(CC)S(=O)(=O)c1cccc(C(=O)NCCc2ccccc2)c1`, the “hERG current change (%, negative = inhibition) at 10uM” value is on record as -30.6%.
Regarding `CCc1cccc(OCCCCNCCOC)c1`, the “hERG current change (%, negative = inhibition) at 10uM” value is -8.6%.
As to `O=[N+]([O-])c1ccccc1S(=O)(=O)N1CCCC(C(F)(F)F)C1` (centres unmarked), the “hERG current change (%, negative = inhibition) at 10uM” value was 6.11%.
As for `COc1ccc(N2CCN(C(=O)COC(=O)CCOc3cc(C)ccc3C)CC2)cc1`, the figure is 0.516%; as for `N#CCn1c(CN2CCCC2)nc2ccccc2c1=O`, 10.2%.
As for `COc1ccc(C2C(C#N)=C(N)Oc3cc(C)[nH]c(=O)c32)c(OC)c1OC` (centres unmarked), the figure is 9.03%; as for `COc1cccc(N2C(=O)c3cccnc3C2O)c1` (centres unmarked), 13.9%.
In the case of `O=C(O)c1cc(-c2ccc3ccccc3n2)nc2ccccc12`, the “hERG current change (%, negative = inhibition) at 10uM” value is reported as 5.51%.
Take `COc1ccc(CNC(=O)C/C(C)=N/NC(=O)C23CC4CC(CC(C4)C2)C3)cc1`: the “hERG current change (%, negative = inhibition) at 10uM” value was -7.55%.
In the case of `CC1N(O)C(c2ccc(Cl)cc2Cl)N(O)C1(C)C` (centres unmarked) it was 10.8%; in that of `O=C(COC(=O)CN1C(=O)c2ccccc2C1=O)Nc1cccc(F)c1`, -5.95%; in that of `COc1ccc(CCNC(=O)c2ccc(CS(=O)Cc3ccc(Cl)cc3)o2)cc1OC` (centres unmarked), -26.7%.
Regarding `CC(C)N1CCN(C(=O)c2ccc(OC3CCN(CCc4ccccc4)CC3)cc2)CC1`, the “hERG current change (%, negative = inhibition) at 10uM” value is listed as -0.0142%.
In the case of `CCC(=O)Nc1ccc(NC(=O)/C=C/c2ccc(Cl)cc2)cc1` it was 12.5%; in that of `CCN(CC)c1ccc(NC(=O)CCN2C(=O)c3ccccc3S2(=O)=O)c(C)c1`, 16.5%.
Turning to `CCCc1[nH]n(-c2ccc([N+](=O)[O-])cc2)c(=O)c1C=NCCCn1ccnc1`, the “hERG current change (%, negative = inhibition) at 10uM” value is reported as -76.4%.
Turning to `CN(Cc1ccccc1)C(=O)CN1C(=O)C2C3C=CC(C3)C2C1=O` (centres unmarked), the “hERG current change (%, negative = inhibition) at 10uM” value is -7.96%.
In the case of `COc1ccc(-n2ncc3c(NCCCn4ccnc4)ncnc32)cc1` it was -25.3%; in that of `COc1ccc(CNC(=O)CN(C(=O)c2csnn2)c2cccc3ccccc23)cc1`, -33.9%.
Turning to `COc1cc(OC)cc(C(=O)N2CCN(C3CCN(Cc4ccccc4)CC3)CC2)c1.O=C(O)C(=O)O`, the “hERG current change (%, negative = inhibition) at 10uM” value is -18.1%.
Turning to `C=CCn1c(SCC(=O)Nc2ccc(C(=O)OC(C)C)cc2)nnc1-c1cccs1`, the “hERG current change (%, negative = inhibition) at 10uM” value came to 5.07%.
`Cc1cccc(C)c1NC(=O)CN(C)C(=O)CC1CC2CCC1C2` (centres unmarked): the “hERG current change (%, negative = inhibition) at 10uM” value was 5.85%.
As for `CC(C)[C@H](NC(=O)C1CC(=O)N(c2ccc(F)cc2)C1)C(=O)N1CCCCC1` (some centres unmarked), the figure is 7.29%; as for `CCCCc1ccc(NC(=O)c2ccc(NS(C)(=O)=O)cc2)cc1`, 20%; as for `S=c1[nH]nc2nnc3ccccc3n12`, 16.8%.
Regarding `COc1ccc(OCCC(=O)Nc2nccs2)cc1`, the “hERG current change (%, negative = inhibition) at 10uM” value is listed as -0.445%.
Consider `COc1cc(/C=N/NC(=O)c2sc3ccccc3c2Cl)ccc1OC(=O)c1ccc([N+](=O)[O-])cc1`, for which the “hERG current change (%, negative = inhibition) at 10uM” value was found to be 12.3%.
As for `O=S(=O)(c1cc(Cl)ccc1Br)N1CCOCC1`, the figure is -11.1%; as for `CC1CC(=O)Nc2ccccc2N1S(=O)(=O)c1ccc(F)cc1F` (centres unmarked), 10%.
Consider `CC1=C(C(=O)OC(C)C)C(/C=C/c2ccccc2)NC(=O)N1` (centres unmarked), for which the “hERG current change (%, negative = inhibition) at 10uM” value is reported as 13.1%.
`CCCCNC(=O)c1cc(C)nn1-c1ccccc1`: the “hERG current change (%, negative = inhibition) at 10uM” value turned out to be 11.4%.
As for `COc1ccccc1NC(=O)CSc1nc2c(sc3ccccc32)c(=O)n1CCN(C)C.Cl`, the figure is 11.5%; as for `CCOc1ccccc1-n1c(SCC(=O)Nc2nccs2)nnc1-c1ccoc1C`, -5.08%; as for `CCCS(=O)(=O)NCCc1cc2c(OC)ccc(OC)c2[nH]c1=O`, -0.0782%.
In the case of `Cc1ccc(CCNC(=O)C2CCN(S(=O)(=O)c3ccc4c(c3)NC(=O)C(C)S4)CC2)cc1` (centres unmarked) it was -2.94%; in that of `C#CCNC(=O)c1cccn1-c1ncc(C(F)(F)F)cc1Cl`, 3.43%; in that of `CC1CCCCN1CCCNC(=O)C1CCN(c2nc3ccccc3o2)CC1` (centres unmarked), -1.61%.
For `CCC(C)C1Nc2ccc(C(=O)NCc3ccc4c(c3)OCO4)cc2NC1=O` (centres unmarked), the “hERG current change (%, negative = inhibition) at 10uM” value was determined as 11.9%.
Take `Cc1ccc(C)c2c1cc(C)c1nnc(SCC(=O)N3CCCc4ccccc43)n12`: the “hERG current change (%, negative = inhibition) at 10uM” value was -14.7%.
For `Cc1cc(/C=C2\C(=O)NC(=O)N(c3cccc(F)c3)C2=O)c(C)n1-c1ccc(C(=O)O)c(Cl)c1`, the “hERG current change (%, negative = inhibition) at 10uM” value came to 5.98%.
As for `COc1ccc(CC(C(=O)Nc2cc(C)ccc2C)/C(N)=N/O)cc1` (centres unmarked), the figure is 9.2%; as for `Cc1ccccc1-c1nc(CN2CCC(C(=O)NCC3CCCO3)CC2)c(C)o1` (centres unmarked), -54.5%; as for `CN1C(=O)/C(=C/c2ccccc2OCc2ccc(F)cc2)N(C)C1=S`, 23.3%.
On to `CC(NC(=O)Cc1ccc(Br)cc1)c1ccccc1` (centres unmarked), for which the “hERG current change (%, negative = inhibition) at 10uM” value worked out at 1.05%.
Turning to `COc1ccc(CCC(=O)NCc2ccc3c(c2)OCO3)cc1`, the “hERG current change (%, negative = inhibition) at 10uM” value was -8.84%.
As for `CCCCCN(C(=O)NC(=O)Nn1cnnc1)S(C)(=O)=O`, the figure is -3.72%; as for `O=C1C2C3C=CC(CC3)C2C(=O)N1/N=C/c1c[nH]c2ccccc12` (centres unmarked), 24.4%.
In the case of `Cn1cc(Br)c(-c2cccc(N3C(=O)CC(C)(C)CC3=O)c2)n1` it was 8.75%.
As to `COC(=O)[C@H](Cc1ccccc1)NC(=O)N1CCCCC1`, the “hERG current change (%, negative = inhibition) at 10uM” value is 9.93%.
Turning to `O=C(O)CNC(=O)CC1S/C(=N/N=C2/NC(=O)CS2)NC1=O` (centres unmarked), the “hERG current change (%, negative = inhibition) at 10uM” value turned out to be 21.9%.
For `O=C(CN1C(=O)C(=O)c2ccccc21)NC1CCCCC1`, the “hERG current change (%, negative = inhibition) at 10uM” value was -2.45%.
In the case of `CCOc1ccc(-n2c(C)c(C(C)=O)c3cc(OCC(N)=O)ccc32)cc1` it was -13.9%; in that of `Cc1ccc(N(C(=O)c2cnccn2)C(C(=O)NC2CCCCC2)c2ccc(O)cc2)cc1` (centres unmarked), -13.3%; in that of `COc1ccccc1CNC(=O)COC(=O)COc1ccccc1F`, -4.34%.
In the case of `CC(C)c1nc(C(=O)N2CCc3c([nH]c4ccccc34)C2c2ccccn2)cs1` (centres unmarked) it was 2.79%; in that of `O=C(COc1cc(Cl)c(Cl)cc1Cl)Nc1cccc(O)c1`, 14.5%.
Take `Fc1ccc(Cn2cnc3ccccc32)cc1`: the “hERG current change (%, negative = inhibition) at 10uM” value is listed as -0.316%.
For the compound `CN(Cc1cc2ccccc2[nH]c1=O)S(=O)(=O)c1ccccc1`, the “hERG current change (%, negative = inhibition) at 10uM” value was found to be 8.3%.
On to `O=c1[nH]n(CCO)c(=O)c2cccnc12`, for which the “hERG current change (%, negative = inhibition) at 10uM” value stood at 7.19%.
In the case of `O=C(CC(=O)c1ccccc1)Nc1cccnc1Cl` it was -4.72%; in that of `O=C(/C(C=Nc1cc2c(oc1=O)CCCC2=O)=C(\O)c1ccccc1)c1ccccc1`, 19.6%.
As for `COc1ccc(C(CC(=O)NCc2ccco2)c2ccc(F)cc2)cc1` (centres unmarked), the figure is -22.4%.
Regarding `O=c1c(-c2nc3ccccc3s2)cccn1Cc1ccccc1`, the “hERG current change (%, negative = inhibition) at 10uM” value is listed as -0.382%.
As for `CCc1ccccc1NC(=O)N1C2CCCC1CC(NC(=O)C(C)(C)C)C2` (centres unmarked), the figure is 5.8%; as for `Cc1cc(-n2nc(C)cc2C)n2ncc(-c3ccccc3)c2n1`, 16.2%; as for `CCCCN(CCCNc1ncnc2nc[nH]c12)c1ccccc1`, -7.39%.
In the case of `Cc1ccc(SCC(=O)NCCc2ccccc2)cc1` it was 15.3%.
For the compound `Cc1cc(C)c2oc(C(=O)N(Cc3ccccc3)c3ccccn3)cc(=O)c2c1`, the “hERG current change (%, negative = inhibition) at 10uM” value is on record as -10.1%.
Consider `CN(CP(=O)(O)C(O)c1ccccc1)S(C)(=O)=O` (centres unmarked), for which the “hERG current change (%, negative = inhibition) at 10uM” value is 2.76%.
As for `CCN(CC(=O)NC(=O)NC1CCCCC1)Cc1nc2ccccc2c(=O)[nH]1`, the figure is -8.1%.
In the case of `COc1ccc(C(=O)NC2CCN(C(=S)Nc3ccc(C)c(C)c3)CC2)cc1` it was 23.5%; in that of `COc1ccc(/C=C(\NC(=O)c2ccccc2)C(=O)N/N=C/c2ccncc2)cc1`, 7.25%.
As for `CCN(CC)c1ccc(/C=N/N2CCN(Cc3ccccc3Cl)CC2)cc1`, the “hERG current change (%, negative = inhibition) at 10uM” value is 16.9%.
`Cc1cc(S(=O)(=O)NCCCn2ccnc2)c(C)cc1Cl`: the “hERG current change (%, negative = inhibition) at 10uM” value is -20.1%.
In the case of `Cc1cccc(C(=O)OCC(=O)NCC(C)C)c1O` it was 21.1%; in that of `COC(=O)C1=C(C(=O)OC)[C@@H]2N(C)c3ccccc3[C@@]23C[C@@H](C(=O)OC)N(C(=O)c2ccco2)C3=N1`, -13.9%.
